{
  "source": "PubChem BioAssay AID504332",
  "about": "(National Center for Advancing Translational Sciences (NCATS), 2011)",
  "note": "In all, about 350,000 compounds went through this assay and about 31,000 (8.9%) were called active. Inconclusive means that the source gave no clear call. Such entries were picked first, then a sample of the others. The call rests on the fitted dose curve; in most records, active means well fitted inhibition curve with a large enough effect; inconclusive means small, poorly fitted or top-dose-only effect; inactive means no such curve, though single readings can be large or run the other way. Potencies of inconclusive entries are doubtful fits and often do not repeat. Potency means the concentration at half of the fitted maximal effect; tags describe the fitted curve by direction and shape.",
  "data": [
    {"target": "Histone-lysine N-methyltransferase EHMT2 (Homo sapiens) (UniProt Q96KQ7)", "sequence (Q96KQ7 whole entry, looked up)": "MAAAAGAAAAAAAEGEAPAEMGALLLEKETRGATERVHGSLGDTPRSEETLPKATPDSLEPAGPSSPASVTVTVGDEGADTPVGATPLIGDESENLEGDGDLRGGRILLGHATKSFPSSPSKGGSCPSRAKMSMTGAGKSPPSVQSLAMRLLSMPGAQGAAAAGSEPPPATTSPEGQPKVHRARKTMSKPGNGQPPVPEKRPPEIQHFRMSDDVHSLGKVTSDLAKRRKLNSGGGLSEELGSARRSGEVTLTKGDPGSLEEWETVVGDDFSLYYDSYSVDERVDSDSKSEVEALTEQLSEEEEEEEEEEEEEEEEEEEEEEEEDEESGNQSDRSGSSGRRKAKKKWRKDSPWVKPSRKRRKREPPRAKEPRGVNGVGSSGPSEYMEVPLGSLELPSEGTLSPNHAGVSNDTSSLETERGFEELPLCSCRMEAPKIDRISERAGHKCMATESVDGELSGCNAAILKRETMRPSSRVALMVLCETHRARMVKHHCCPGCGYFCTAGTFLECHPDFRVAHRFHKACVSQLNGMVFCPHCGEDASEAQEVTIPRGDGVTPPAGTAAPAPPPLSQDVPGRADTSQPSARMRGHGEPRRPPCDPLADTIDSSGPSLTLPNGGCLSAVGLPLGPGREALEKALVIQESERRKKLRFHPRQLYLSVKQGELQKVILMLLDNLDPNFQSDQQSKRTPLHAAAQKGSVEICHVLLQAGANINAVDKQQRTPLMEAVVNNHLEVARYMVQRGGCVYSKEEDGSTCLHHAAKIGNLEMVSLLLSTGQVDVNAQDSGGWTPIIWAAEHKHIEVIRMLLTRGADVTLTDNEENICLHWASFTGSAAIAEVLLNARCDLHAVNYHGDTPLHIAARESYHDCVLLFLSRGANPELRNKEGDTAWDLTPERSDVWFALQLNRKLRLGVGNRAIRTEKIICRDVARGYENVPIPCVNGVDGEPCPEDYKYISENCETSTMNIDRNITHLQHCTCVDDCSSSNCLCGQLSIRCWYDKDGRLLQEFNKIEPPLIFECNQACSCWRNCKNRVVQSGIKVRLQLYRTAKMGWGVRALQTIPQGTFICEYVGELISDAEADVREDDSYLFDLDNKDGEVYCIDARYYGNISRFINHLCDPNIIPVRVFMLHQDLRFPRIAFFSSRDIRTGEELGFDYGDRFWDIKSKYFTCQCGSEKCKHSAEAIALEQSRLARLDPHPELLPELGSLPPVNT", "assay": "qHTS Assay for Inhibitors of Histone Lysine Methyltransferase G9a; further: nearly all actives have a fitted effect of over 75% in size", "details": "G9a H3K9 monomethylation, AlphaScreen, 2 h; series mostly up to 59 µM", "summary_of_the_method": "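Signal arises when biotinylated H3K9 peptide, once monomethylated, bridges streptavidin donor and antibody-captured acceptor beads. Enzyme at 20 nM was preincubated 15 min with test compounds; peptide 500 nM and SAM 20 uM then reacted for 2 h.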", "values": [
      {"compound": "COc1ccc(Cn2ccc3nc(C)c(C(=O)Nc4ccc(OC)c(OC)c4)cc3c2=O)cc1", "Potency": "inactive"},
      {"compound": "COc1ccc(/C=N/Nc2nonc2N)c(OC)c1", "Potency": "inconclusive: 70.8 µM [inhibitor, single point]"},
      {"compound": "CN(C)C1=NC(=O)/C(=C/c2ccc(-c3ccc(S(N)(=O)=O)cc3)o2)S1", "Potency": "active: 7.08 µM"},
      {"compound": "Cn1cc(S(=O)(=O)CC(=O)Nc2ccc3c(c2)OCCO3)c2ccccc21", "Potency": "inconclusive: 31.6 µM [inhibitor, single point]"},
      {"compound": "Cc1cc(N2CCN(C)CC2)nc2ccc(NC(=O)CCC(=O)N3CCN(c4ccc([N+](=O)[O-])cc4)CC3)cc12", "Potency": "inconclusive: 79.4 µM [inhibitor, single point]"},
      {"compound": "Cc1cc(Nc2ccccc2)n(C(=O)c2ccc(N)cc2)n1", "Potency": "inconclusive: 39.8 µM [inhibitor, single point]"},
      {"compound": "CC1CCN(CCCNC(=O)c2ccc3c(=O)n(Cc4ccc(Cl)cc4)c(=S)[nH]c3c2)CC1", "Potency": "active: 44.7 µM"},
      {"compound": "CCOc1ccc(C(C)NC(=O)c2ccccc2OCc2c(C)noc2C)cc1OCC", "note": "(stereo not given)", "Potency": "inactive"},
      {"compound": "Cc1cccc(NC(=S)NC2CCSc3ccccc32)c1", "note": "(stereo not given)", "Potency": "inactive"},
      {"compound": "CCc1nnc(NS(=O)(=O)c2ccc(NC(=S)NC(=O)/C=C/c3ccc(F)cc3)cc2)s1", "Potency": "active: 89.1 µM"},
      {"compound": "COc1ccc(N(C)C(=O)Nc2ccc3nsnc3c2)cc1", "Potency": "inactive"},
      {"compound": "CC1(C(=O)N2CCC(CC3CC(c4ccc(Cl)cc4)=NO3)(C(=O)NCC3CCCCC3)CC2)CC1", "note": "(stereo not given)", "Potency": "inconclusive: 79.4 µM [inhibitor, single point]"},
      {"compound": "S=C(Nc1ccc2c(c1)OCO2)Nc1ccc2c(c1)OCO2", "Potency": "inconclusive: 28.2 µM [inhibitor, single point]"},
      {"compound": "C(#Cc1ccccc1)C[N+]1(CC#Cc2cccc3ccccc23)CCCC1", "Potency": "inconclusive: 89.1 µM [inhibitor, single point]"},
      {"compound": "Cc1ccc(NC(=O)CCN2CCN(C/C=C/c3ccccc3)CC2)cc1", "Potency": "inconclusive: 50.1 µM [inhibitor, partial curve]"},
      {"compound": "O=C(CNC1=NCCC1)c1ccc2c(c1)OCCO2", "Potency": "inconclusive: 28.2 µM [inhibitor, full curve]"},
      {"compound": "COc1ccc(NCc2nc3ccccc3n2CCOc2ccccc2C)cc1", "Potency": "inconclusive: 25.1 µM [inhibitor, single point]"},
      {"compound": "COc1ccc(OC)c(-n2c(=O)[nH]c3cc(C(=O)NCCc4ccc(OC)c(OC)c4)ccc3c2=O)c1", "Potency": "inactive"},
      {"compound": "CC1CCN(S(=O)(=O)c2ccc3c(c2)N(CC(=O)NCc2ccccc2Cl)C(=O)CO3)CC1", "Potency": "inactive"},
      {"compound": "CCO/C=C1/C(=O)N(c2ccc(OC)cc2)C(=O)c2ccccc21", "Potency": "active: 25.1 µM"}
    ]}
  ]
}
